Data reported in the supplement of paper PMC12217912.
Some of the results follow. The full chains were built here from the parent and the listed change. Values near 0.05 are background.

B1: TEV protease; numbered along this chain (parent)
chain: MGESLFKGPRDYNPISSSICHLTNESDGHTTSLYGIGFGPFIITNKHLFRRNNGTLVVQSLHGVFKVKDTTTLQQHLVDGRDMIIIRMPKDFPPFPQKLKFREPQREERICLVTTNFQTKSMSSMVSDTSCTFPSGDGIFWKHWIQTKDGQCGSPLVSTRDGFIVGIHSASNFTNTNNYFTSVPKNFMELLTNQEAQQWVSGWRLNADSVLWGGHKVFMVKPEEPFQPVKEATQL

Variants of: B1
Test: raw area under fraction-flipped curve 0-4 h after induction (AUC4h, not background-subtracted), DNA-recorder readout of cleavage of the substrate (dimensionless); higher = more cleavage of the substrate by the protease variant
Conditions: temperature: 34 °C; time window: 0-4 h after rhamnose induction
Description: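 In vivo DNA recorder in E. coli TOP10(DE3) ΔrhaA at 34 °C. Each TEVp single-site mutant (parent TEVp 0) is paired with a single-site variant of the 7-mer TEVs (canonical ENLYFQ|S). The substrate sits between flexible linkers in a Bxb1-sfGFP-TEVs-SsrA fusion, so cleavage stabilises Bxb1 and speeds flipping of a recombination array, read by NGS. The value is the raw area under the fraction-flipped curve over 0-4 h after rhamnose induction (AUC4h), with ≥20 reads per time point. It is not background-subtracted; inactive controls average about 0.047.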
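Also: Bxb1 expression induced with 0.2% (w/v) L-rhamnose at OD600 near 0.5, cultures sampled hourly, flipped fraction per protease–substrate barcode pair counted by paired-end Illumina sequencing.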

Row | Variant | area with substrate ENLYDQS | area with substrate ENLYEQS | area with substrate ENLYHQS | area with substrate ENLYPQS | area with substrate ENLYGQS | area with substrate ENLYNQS | area with substrate ENLYWQS | area with substrate ENLYIQS | area with substrate ENLYRQS | area with substrate ENLYMQS
1 | G214E | 0.0501 | 0.079 | 0.0675 | 0.0683 |  |  |  |  |  | 
2 | V58G |  | 0.0525 |  | 0.0473 | 0.0473 | 0.0568 | 0.0609 |  |  | 
3 | V58D |  | 0.0515 |  |  |  | 0.042 | 0.0543 | 0.0267 | 0.0369 | 
4 | V58S |  | 0.0619 |  |  | 0.0607 | 0.0855 | 0.0875 |  | 0.0566 | 0.08
5 | G35D |  | 0.034 | 0.0442 | 0.0411 |  |  | 0.0463 | 0.031 | 0.0553 | 
6 | T233P | 0.0563 |  |  |  |  |  |  |  |  | 0.0887
7 | V210P | 0.0591 | 0.053 | 0.0543 | 0.073 | 0.0599 |  |  | 0.0832 | 0.0576 | 0.0544
8 | G153F |  | 0.0467 |  |  |  | 0.0538 | 0.0587 |  |  | 
9 | G153S |  | 0.0611 | 0.057 | 0.0574 |  | 0.0772 |  |  | 0.0595 | 0.0582
10 | G153Q |  | 0.0443 |  |  | 0.0278 | 0.0409 |  |  |  | 0.0552
11 | A207R | 0.0432 | 0.0672 |  |  | 0.0559 | 0.0621 | 0.0986 |  | 0.0685 | 0.0844
12 | N186T |  | 0.075 |  | 0.081 | 0.0697 | 0.0631 | 0.0764 | 0.102 |  | 
13 | D161G |  | 0.079 | 0.0713 | 0.062 | 0.0365 |  | 0.0586 |  | 0.056 | 0.0906
14 | G8L |  | 0.0772 |  | 0.0546 |  | 0.069 |  |  | 0.0604 | 
15 | F6T |  | 0.067 |  |  | 0.0424 | 0.0821 |  |  |  | 
16 | F6A |  | 0.0714 |  |  |  |  |  |  |  | 
17 | R51H |  | 0.0604 |  |  |  |  |  |  |  | 
18 | T115R |  | 0.0739 | 0.058 | 0.0962 | 0.053 |  | 0.088 |  |  | 0.093
19 | T115K |  | 0.074 | 0.0675 | 0.0681 | 0.061 |  | 0.0739 | 0.133 |  | 0.0864
20 | W203D | 0.0586 |  |  |  |  |  |  | 0.0626 |  | 
21 | W212S | 0.0776 | 0.0694 | 0.0614 | 0.0676 | 0.0633 | 0.0546 |  |  | 0.0576 | 
22 | D128T |  | 0.0726 |  | 0.0766 | 0.0857 |  |  | 0.121 | 0.0695 | 0.127
23 | N193Y |  | 0.0547 | 0.0614 |  | 0.0769 |  | 0.0637 |  |  | 0.0758

Row | Variant | area with substrate ENLYDQS | area with substrate ENLYEQS | area with substrate ENLYHQS | area with substrate ENLYPQS | area with substrate ENLYGQS | area with substrate ENLYNQS | area with substrate ENLYWQS | area with substrate ENLYIQS | area with substrate ENLYRQS | area with substrate ENLYMQS
24 | V200D | 0.0391 | 0.0792 | 0.0589 |  |  |  | 0.056 |  | 0.062 | 0.0824
25 | P89V |  | 0.0445 |  | 0.05 | 0.0689 | 0.0439 |  |  |  | 0.0527
26 | S209E | 0.0651 | 0.0858 |  |  | 0.0633 |  | 0.0888 |  | 0.0576 | 0.0982
27 | S209A | 0.0625 | 0.0723 | 0.0831 | 0.0684 |  | 0.084 |  |  | 0.059 | 0.0682
28 | S209W | 0.0648 | 0.0597 |  | 0.0939 |  | 0.0762 |  |  |  | 0.0819
29 | S154V |  | 0.0596 | 0.0615 | 0.0692 | 0.0497 |  | 0.0574 | 0.159 | 0.0706 | 
30 | S154I |  | 0.0638 |  |  |  |  |  |  |  | 0.082
31 | N172Q |  | 0.056 | 0.0979 |  |  | 0.0625 |  |  |  | 
32 | L61F |  | 0.0723 |  |  | 0.0617 |  |  | 0.0915 |  | 
33 | Q59H |  | 0.0685 | 0.0685 |  | 0.0766 | 0.0607 | 0.061 | 0.122 | 0.0713 | 0.0974
34 | H215L | 0.0741 | 0.0592 |  | 0.0579 | 0.0627 |  | 0.0449 | 0.0668 |  | 0.0346
35 | H143N |  | 0.0762 |  |  | 0.0679 |  | 0.0643 |  |  | 
36 | V113K |  | 0.0564 | 0.0656 | 0.082 |  | 0.0606 | 0.0502 | 0.0719 | 0.0783 | 0.0708
37 | G213T | 0.0618 | 0.076 |  | 0.0619 |  |  |  | 0.0666 | 0.0594 | 0.0603
38 | S135H |  | 0.0665 | 0.0637 |  |  |  | 0.0622 | 0.0563 | 0.0621 | 
39 | D11T |  | 0.0643 |  | 0.0655 | 0.0627 |  | 0.0715 |  |  | 0.0903
40 | C131K |  | 0.0849 |  |  |  | 0.204 | 0.104 |  |  | 
41 | C131F |  | 0.0601 |  |  |  |  |  |  |  | 0.0953
42 | F92K |  | 0.0621 | 0.072 | 0.0695 | 0.0626 | 0.0863 |  | 0.107 |  | 
43 | F92V |  | 0.0992 |  |  | 0.0754 |  | 0.0947 |  | 0.0302 | 
44 | G37C |  | 0.0682 |  | 0.0665 | 0.0383 | 0.0683 | 0.0635 |  |  | 0.0791
45 | S182C |  | 0.0716 | 0.0707 |  |  |  |  | 0.123 | 0.0572 | 
46 | S182E |  | 0.057 | 0.0677 |  | 0.0505 | 0.062 | 0.0495 | 0.0739 |  | 0.055

Same assay, conditions: temperature: 34 °C; time window: 0-4 h after rhamnose induction

Row | Variant | area with substrate ENLYQQS | area with substrate ENLYSQS | area with substrate ENLYVQS | area with substrate ENLYKQS | area with substrate ENLYLQS | area with substrate ENLYTQS | area with substrate ENLYYQS
47 | V58S | 0.0471 | 0.0302 | 0.0876 |  |  |  | 
48 | G35D |  |  | 0.0509 | 0.0381 |  |  | 
49 | V210P | 0.0046 | 0.0659 |  | 0.0673 | 0.0598 | 0.0784 | 
50 | G153F | 0.0571 |  |  | 0.0434 |  |  | 
51 | G153S |  |  |  |  |  |  | 0.0639
52 | A207R | 0.0665 |  |  |  |  | 0.069 | 0.0616
53 | N186T |  |  |  | 0.0703 | 0.136 | 0.0598 | 
54 | D161G | 0.0598 |  |  | 0.0717 | 0.0881 |  | 0.0504
55 | G8L |  |  |  | 0.0816 | 0.0848 |  | 
56 | F6T | 0.054 |  |  |  |  |  | 
57 | T115R | 0.0696 | 0.0569 |  | 0.0668 | 0.0968 | 0.0899 | 
58 | T115K | 0.0697 | 0.0854 | 0.142 |  | 0.0808 |  | 0.0489
59 | W203D |  | 0.064 |  |  |  |  | 
60 | W212S | 0.0654 |  |  |  |  |  | 
61 | D128T | 0.0916 |  |  | 0.0578 |  |  | 
62 | N193Y | 0.0683 | 0.0607 | 0.0977 |  |  |  | 
63 | V200D |  |  |  |  |  | 0.0763 | 0.0635

Row | Variant | area with substrate ENLYQQS | area with substrate ENLYSQS | area with substrate ENLYVQS | area with substrate ENLYKQS | area with substrate ENLYLQS | area with substrate ENLYTQS | area with substrate ENLYYQS
64 | P89V |  |  |  |  | 0.034 | 0.0691 | 
65 | S209E |  |  | 0.141 | 0.11 |  |  | 0.0589
66 | S209A | 0.0744 |  |  |  |  |  | 
67 | S154V |  |  | 0.131 | 0.0469 |  |  | 
68 | S154I | 0.0715 |  |  | 0.0654 |  |  | 
69 | N172Q |  |  | 0.0687 | 0.0536 | 0.0541 |  | 
70 | Q59H | 0.0704 | 0.0613 | 0.131 | 0.0575 |  | 0.112 | 0.0673
71 | H215L | 0.0766 | 0.0705 | 0.0777 | 0.0038 |  | 0.07 | 0.0531
72 | H143N |  |  |  |  |  |  | 0.0483
73 | V113K | 0.0963 | 0.0502 | 0.0917 | 0.0632 |  | 0.0634 | 
74 | G213T |  |  | 0.0633 | 0.0232 |  |  | 
75 | S135H |  |  |  |  |  | 0.0669 | 
76 | C131K |  |  | 0.135 |  |  |  | 
77 | F92K |  | 0.0772 | 0.102 | 0.0562 |  |  | 
78 | G37C |  |  |  | 0.0566 |  | 0.104 | 
79 | S182C |  | 0.113 |  | 0.0664 |  |  | 
80 | S182E |  |  | 0.0867 | 0.063 | 0.0683 |  | 0.0904
